# Experimental data from the supplement of paper PMC8728848.
# The list shows a part of the results.
# Tests used:
# Experiment in all cases: glycan array binding signal (z-score within array); higher = stronger binding
# Conditions in all cases: glycan notation: IUPAC condensed, linker removed
# [1] = target: Fuc(a1-2)[Gal(a1-3)]Gal(b1-4)GlcNAc(b1-2)Man(a1-3)[Fuc(a1-2)[Gal(a1-3)]Gal(b1-4)GlcNAc(b1-2)Man(a1-6)]Man(b1-4)GlcNAc(b1-4)GlcNAc
# In short: (§1)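 The binding signal is a Z-score computed within each array. Data were drawn from 3228 arrays in the Consortium for Functional Glycomics database, restricted to those with a known protein sequence. Scores were averaged over arrays of the same protein sequence at different concentrations or buffers, and over linkers, and negative values can be taken as non-binding.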
# [2] = target: Fuc(a1-2)[Gal(a1-3)]Gal(b1-4)GlcNAc(b1-2)Man(a1-3)[Fuc(a1-2)[Gal(a1-3)]Gal(b1-4)GlcNAc(b1-2)Man(a1-6)]Man(b1-4)GlcNAc(b1-4)[Fuc(a1-6)]GlcNAc
# In short: as §1
# [3] = target: Fuc(a1-2)[Gal(a1-3)]Gal(b1-4)GlcNAc(b1-3)GalNAc
# In short: as §1
# [4] = target: Fuc(a1-2)[Gal(a1-3)]Gal(b1-4)GlcNAc(b1-3)[Fuc(a1-2)[Gal(a1-3)]Gal(b1-4)GlcNAc(b1-6)]GalNAc
# In short: as §1
# [5] = target: Fuc(a1-2)[Gal(a1-3)]Gal(b1-4)GlcNAc(b1-6)GalNAc
# In short: as §1
# [6] = target: Fuc(a1-2)[Gal(a1-3)]Gal(b1-4)[Fuc(a1-3)]Glc
# In short: as §1
# [7] = target: Fuc(a1-2)[Gal(a1-3)]Gal(b1-4)[Fuc(a1-3)]GlcNAc
# In short: as §1
# [8] = target: Fuc(a1-2)[Gal(a1-3)]Gal(b1-4)[Fuc(a1-3)]GlcNAc(b1-3)GalNAc
# In short: as §1
# [9] = target: Fuc(a1-2)[Gal(a1-4)]Gal(b1-4)GlcNAc
# In short: as §1
# [10] = target: Fuc(a1-2)[GalNAc(a1-3)]Gal
# In short: as §1
# [11] = target: Fuc(a1-2)[GalNAc(a1-3)]Gal(b1-3)GalNAc(a1-3)[Fuc(a1-2)]Gal(b1-4)GlcNAc
# In short: as §1
# [12] = target: Fuc(a1-2)[GalNAc(a1-3)]Gal(b1-3)GalNAc(b1-3)Gal(a1-4)Gal(b1-4)Glc
# In short: as §1
# [13] = target: Fuc(a1-2)[GalNAc(a1-3)]Gal(b1-3)GlcNAc
# In short: as §1
# [14] = target: Fuc(a1-2)[GalNAc(a1-3)]Gal(b1-3)GlcNAc(b1-2)Man(a1-3)[Fuc(a1-2)[GalNAc(a1-3)]Gal(b1-3)GlcNAc(b1-2)Man(a1-6)]Man(b1-4)GlcNAc(b1-4)GlcNAc
# In short: as §1
# [15] = target: Fuc(a1-2)[GalNAc(a1-3)]Gal(b1-3)GlcNAc(b1-2)Man(a1-3)[Fuc(a1-2)[GalNAc(a1-3)]Gal(b1-3)GlcNAc(b1-2)Man(a1-6)]Man(b1-4)GlcNAc(b1-4)[Fuc(a1-6)]GlcNAc
# In short: as §1
# [16] = target: Fuc(a1-2)[GalNAc(a1-3)]Gal(b1-3)GlcNAc(b1-3)GalNAc
# In short: as §1
# [17] = target: Fuc(a1-2)[GalNAc(a1-3)]Gal(b1-3)GlcNAc(b1-6)GalNAc
# In short: as §1
# [18] = target: Fuc(a1-2)[GalNAc(a1-3)]Gal(b1-4)Glc
# In short: as §1
# [19] = target: Fuc(a1-2)[GalNAc(a1-3)]Gal(b1-4)GlcNAc
# In short: as §1
# [20] = target: Fuc(a1-2)[GalNAc(a1-3)]Gal(b1-4)GlcNAc(b1-2)Man
# In short: as §1
# [21] = target: Fuc(a1-2)[GalNAc(a1-3)]Gal(b1-4)GlcNAc(b1-2)Man(a1-3)[Fuc(a1-2)[GalNAc(a1-3)]Gal(b1-4)GlcNAc(b1-2)Man(a1-6)]Man(b1-4)GlcNAc(b1-4)GlcNAc
# In short: as §1
# [22] = target: Fuc(a1-2)[GalNAc(a1-3)]Gal(b1-4)GlcNAc(b1-2)Man(a1-3)[Fuc(a1-2)[GalNAc(a1-3)]Gal(b1-4)GlcNAc(b1-2)Man(a1-6)]Man(b1-4)GlcNAc(b1-4)[Fuc(a1-6)]GlcNAc
# In short: as §1
# [23] = target: Fuc(a1-2)[GalNAc(a1-3)]Gal(b1-4)GlcNAc(b1-3)Gal(b1-4)GlcNAc
# In short: as §1
# [24] = target: Fuc(a1-2)[GalNAc(a1-3)]Gal(b1-4)GlcNAc(b1-3)Gal(b1-4)GlcNAc(b1-3)Gal(b1-4)GlcNAc
# In short: as §1
# [25] = target: Fuc(a1-2)[GalNAc(a1-3)]Gal(b1-4)GlcNAc(b1-3)GalNAc
# In short: as §1
# [26] = target: Fuc(a1-2)[GalNAc(a1-3)]Gal(b1-4)GlcNAc(b1-3)[Fuc(a1-2)[GalNAc(a1-3)]Gal(b1-4)GlcNAc(b1-6)]GalNAc
# In short: as §1
# [27] = target: Fuc(a1-2)[GalNAc(a1-3)]Gal(b1-4)GlcNAc(b1-6)GalNAc
# In short: as §1
# [28] = target: Fuc(a1-2)[GalNAc(a1-3)]Gal(b1-4)[Fuc(a1-3)]GlcNAc
# In short: as §1
# [29] = target: Fuc(a1-2)[GalNAc(a1-3)]Gal(b1-4)[Fuc(a1-3)]GlcNAc(b1-3)GalNAc
# In short: as §1
# [30] = target: Fuc(a1-2)[GalNAc(a1-4)]Gal(b1-4)GlcNAc
# In short: as §1
# [31] = target: Fuc(a1-2)[GalNAc(b1-3)]Gal
# In short: as §1
# Fuc(a1-3)GlcNAc = target: Fuc(a1-3)GlcNAc
# In short: as §1
# [32] = target: Fuc(a1-3)[Gal(b1-4)]Glc6S
# In short: as §1
# [33] = target: Fuc(a1-3)[Gal(b1-4)]GlcNAc
# In short: as §1
# [34] = target: Fuc(a1-3)[Gal(b1-4)]GlcNAc(b1-2)Man
# In short: as §1
# [35] = target: Fuc(a1-3)[Gal(b1-4)]GlcNAc(b1-2)Man(a1-3)[Fuc(a1-3)[Gal(b1-4)]GlcNAc(b1-2)Man(a1-6)]Man(b1-4)GlcNAc(b1-4)GlcNAc
# In short: as §1
# [36] = target: Fuc(a1-3)[Gal(b1-4)]GlcNAc(b1-2)Man(a1-3)[Fuc(a1-3)[Gal(b1-4)]GlcNAc(b1-2)Man(a1-6)]Man(b1-4)GlcNAc(b1-4)[Fuc(a1-6)]GlcNAc
# In short: as §1
# [37] = target: Fuc(a1-3)[Gal(b1-4)]GlcNAc(b1-3)Gal(b1-3)[Fuc(a1-4)]GlcNAc
# In short: as §1
# [38] = target: Fuc(a1-3)[Gal(b1-4)]GlcNAc(b1-3)Gal(b1-4)[Fuc(a1-3)]GlcNAc
# In short: as §1
# [39] = target: Fuc(a1-3)[Gal(b1-4)]GlcNAc(b1-3)Gal(b1-4)[Fuc(a1-3)]GlcNAc(b1-3)Gal(b1-4)[Fuc(a1-3)]GlcNAc
# In short: as §1
# [40] = target: Fuc(a1-3)[Gal(b1-4)]GlcNAc(b1-3)GalNAc
# In short: as §1
# [41] = target: Fuc(a1-3)[Gal(b1-4)]GlcNAc(b1-6)GalNAc
# In short: as §1
# [42] = target: Fuc(a1-3)[Gal(b1-4)]GlcNAc(b1-6)[Gal(b1-3)GlcNAc(b1-3)]Gal(b1-4)Glc
# In short: as §1
# [43] = target: Fuc(a1-3)[Gal(b1-4)]GlcNAc6S
# In short: as §1
# [44] = target: Fuc(a1-3)[Gal3S(b1-4)]Glc
# In short: as §1
binder,measurement,setting,value
LFA (Limax flavus) (protein) MSVLFLAASFLLLASFELVAAQGCPRQDPGDWIVIQRRLNADVNFYRGWADYKHGFGDLRCNFWLGNEKIHQLTSHGRYKLRVEFTFNNKSYFAEYSTFKILGEADKYKLQVGGYSGNAGDALTFHNGMAFSTNDRDNDADSIDCAKVYHGAWWYKTCHESNLNGKWGSKKYGEGLNWKAKTTFTATATSSLLKIKALK,glycan array binding signal (z-score),[1],-0.101
same,glycan array binding signal (z-score),[2],-0.189
same,glycan array binding signal (z-score),[3],0.613
same,glycan array binding signal (z-score),[4],-0.303
same,glycan array binding signal (z-score),[5],-0.194
same,glycan array binding signal (z-score),[6],-0.228
same,glycan array binding signal (z-score),[7],-0.137
same,glycan array binding signal (z-score),[8],-0.227
same,glycan array binding signal (z-score),[9],-0.374
same,glycan array binding signal (z-score),[10],-0.178
same,glycan array binding signal (z-score),[11],-0.315
same,glycan array binding signal (z-score),[12],-0.325
same,glycan array binding signal (z-score),[13],-0.058
same,glycan array binding signal (z-score),[14],-0.282
same,glycan array binding signal (z-score),[15],0.209
same,glycan array binding signal (z-score),[16],-0.243
same,glycan array binding signal (z-score),[17],-0.175
same,glycan array binding signal (z-score),[18],-0.03
same,glycan array binding signal (z-score),[19],-0.171
same,glycan array binding signal (z-score),[20],-0.358
same,glycan array binding signal (z-score),[21],-0.018
same,glycan array binding signal (z-score),[22],-0.14
same,glycan array binding signal (z-score),[23],-0.192
same,glycan array binding signal (z-score),[24],0.433
same,glycan array binding signal (z-score),[25],-0.224
same,glycan array binding signal (z-score),[26],-0.241
same,glycan array binding signal (z-score),[27],-0.293
same,glycan array binding signal (z-score),[28],0.032
same,glycan array binding signal (z-score),[29],-0.214
same,glycan array binding signal (z-score),[30],3.52
same,glycan array binding signal (z-score),[31],-0.163
same,glycan array binding signal (z-score),Fuc(a1-3)GlcNAc,-0.259
same,glycan array binding signal (z-score),[32],-0.024
same,glycan array binding signal (z-score),[33],-0.221
same,glycan array binding signal (z-score),[34],-0.316
same,glycan array binding signal (z-score),[35],-0.239
same,glycan array binding signal (z-score),[36],-0.15
same,glycan array binding signal (z-score),[37],-0.063
same,glycan array binding signal (z-score),[38],-0.217
same,glycan array binding signal (z-score),[39],-0.149
same,glycan array binding signal (z-score),[40],-0.224
same,glycan array binding signal (z-score),[41],-0.138
same,glycan array binding signal (z-score),[42],-0.335
same,glycan array binding signal (z-score),[43],-0.219
same,glycan array binding signal (z-score),[44],-0.271
